Source: paper PMC4780765
No constants are given. Whether binding was seen depends on the method and setting. For some of these results: Binding seen in cells or lysates may run through a third protein. Some results given as binding are weak or reduced against the parent protein; the word gives no strength.

Amino acid sequences for entries named in this document (tags omitted). A change or cut given only in a name is not applied to a line headed by its entry. Chains listed by the source or under a name are the forms on record and can include a tag or linker. Residues count along the entry.
UniProt P13569: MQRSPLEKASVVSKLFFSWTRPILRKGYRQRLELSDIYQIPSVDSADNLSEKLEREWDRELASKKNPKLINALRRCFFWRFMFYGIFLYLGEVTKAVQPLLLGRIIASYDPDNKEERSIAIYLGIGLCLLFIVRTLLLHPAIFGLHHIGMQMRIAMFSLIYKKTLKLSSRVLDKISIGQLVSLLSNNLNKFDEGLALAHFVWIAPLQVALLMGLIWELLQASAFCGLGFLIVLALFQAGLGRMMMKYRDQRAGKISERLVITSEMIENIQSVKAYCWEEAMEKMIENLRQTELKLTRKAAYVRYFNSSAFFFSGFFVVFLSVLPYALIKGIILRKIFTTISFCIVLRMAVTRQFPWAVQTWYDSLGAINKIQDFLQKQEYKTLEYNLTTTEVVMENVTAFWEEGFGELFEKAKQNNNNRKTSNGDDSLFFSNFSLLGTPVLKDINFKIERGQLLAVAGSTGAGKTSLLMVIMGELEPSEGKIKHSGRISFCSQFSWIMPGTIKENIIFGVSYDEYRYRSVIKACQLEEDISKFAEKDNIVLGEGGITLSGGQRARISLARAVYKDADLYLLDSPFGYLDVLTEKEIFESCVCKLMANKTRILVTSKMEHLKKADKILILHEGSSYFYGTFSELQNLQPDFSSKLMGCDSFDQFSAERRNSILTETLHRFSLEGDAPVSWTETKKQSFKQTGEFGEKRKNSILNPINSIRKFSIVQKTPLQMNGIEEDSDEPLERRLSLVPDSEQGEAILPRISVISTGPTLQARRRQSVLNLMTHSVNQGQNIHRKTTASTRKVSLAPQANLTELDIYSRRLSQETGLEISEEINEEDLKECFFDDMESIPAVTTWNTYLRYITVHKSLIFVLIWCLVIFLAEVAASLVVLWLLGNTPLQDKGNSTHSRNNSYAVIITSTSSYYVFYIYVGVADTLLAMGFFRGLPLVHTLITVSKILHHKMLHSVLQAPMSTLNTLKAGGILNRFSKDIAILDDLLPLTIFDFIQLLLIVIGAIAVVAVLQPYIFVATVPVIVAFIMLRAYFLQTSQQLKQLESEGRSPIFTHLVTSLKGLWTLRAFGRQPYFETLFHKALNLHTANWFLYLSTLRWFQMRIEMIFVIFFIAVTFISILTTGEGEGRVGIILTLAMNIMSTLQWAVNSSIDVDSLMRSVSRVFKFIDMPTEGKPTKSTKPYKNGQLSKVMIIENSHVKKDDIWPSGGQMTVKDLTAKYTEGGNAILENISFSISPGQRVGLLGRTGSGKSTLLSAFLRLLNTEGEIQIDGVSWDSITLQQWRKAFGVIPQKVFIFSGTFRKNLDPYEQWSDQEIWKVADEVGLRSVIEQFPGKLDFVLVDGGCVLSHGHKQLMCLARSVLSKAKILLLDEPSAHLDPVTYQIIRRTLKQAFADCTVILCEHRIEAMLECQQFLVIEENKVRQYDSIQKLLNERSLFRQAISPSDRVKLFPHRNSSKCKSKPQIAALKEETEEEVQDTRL
untagged NBD1 (351–727): residues 351-727 of P13569

Experiments:
[1] = target: cystic fibrosis transmembrane conductance regulator (human (endogenous in 16HBE14o-)) (UniProt P13569); assay: co-IP; release by a synthetic peptide: CFTR or NDPK-B immunoprecipitates on beads from lysates of FSK/IBMX-stimulated 16HBE14o- cells incubated with peptide for 30 min at 30°C; release of the partner into the supernatant by immunoblot; only the binder purified
[2] = target: human recombinant nucleoside diphosphate kinase B isoform (human) (UniProt P22392); assay: SPR; BIAcore 3000, NDPK-B immobilised by amine coupling on CM5 (5561.5 RU), analyte injected in HBS-EP pH 7.4 at 10 μL/min for 2 min, 25°C; response read 20 s into the dissociation phase, blank flow cell subtracted; both purified
[3] = target: untagged NBD1 (351–727) (human) (UniProt P13569); assay: SPR; competition: 1 μg untagged NBD1 injected alone or together with peptide (10, 50 or 100 ng) over immobilised NDPK-B on CM5, HBS-EP, 25°C; response read 20 s into the dissociation phase; both purified
[4] = target: nucleoside diphosphate kinase A (human (endogenous in 16HBE14o-)), P15531; assay: co-IP; NDPK-A and NDPK-B immunoprecipitates from membrane and cytosol of airway epithelia, each probed for the other isoform; settings: remark: other sources report otherwise

Binder | binding [1] | binding [2] | binding [3] | binding [4]
VAMKFLRASEEHLKQHYID [peptide NDPK-B 36–54] | binds | no binding (tested: 200 ng) | binds | –
nucleoside diphosphate kinase B, P22392 1-152 (protein) MANLERTFIAIKPDGVQRGLVGEIIKRFEQKGFRLVAMKFLRASEEHLKQHYIDLKDRPFFPGLVKYMNSGPVVAMVWEGLNVVKTGRVMLGETNPADSKPGTIRGDFCIQVGRNIIHGSDSVKSAEKEISLWFKPEELVDYKSCAHDWVYE | – | – | – | no binding
